In all, about 48,000 compounds went through this assay and about 450 (0.94%) were called active. About 19% were inconclusive and are not listed. The call rests on the fitted dose curve; in most records, active means well fitted inhibition curve with a large enough effect; inconclusive means small, poorly fitted or top-dose-only effect; inactive means no such curve, though single readings can be large or run the other way. This is one part of the list.
Test: Primary qHTS for Identification of Small Molecule Inhibitors of Huntingtin Promoter Activity; further: nearly all actives have a fitted effect of over 50% in size
Conditions: HEK293 HTT promoter firefly luciferase reporter (activity 0% = vehicle and -100% = no light), 24 h; series mostly up to 57.5 µM; activity change, negative = inhibition: at the top concentration
Method in brief: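 Firefly luciferase signal from promoter-reporter HEK293 cells was scaled between vehicle (0%) and zero RLU (-100%). Compounds were tested at final concentrations of up to 57.5 uM over 24 h at 37 degrees C. PTC124 at 50 uM final served as control inhibitor.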

Activity change, negative = inhibition, inactive:
CCCCNc1cc(NC2CCCCC2)c2c3c(onc13)-c1ccccc1C2=O -31.4%
Cc1ccc(SCC(=O)Nc2cccc(-c3nc4cc(Cl)ccc4o3)c2C)cc1 0%
CCCOc1ccc(CNC(=O)C2CCN(c3nc4ccccc4nc3C(F)(F)F)CC2)cc1 0.565%
N#CC[C@H](C1CCCC1)n1cc(-c2ncnc3[nH]ccc23)cn1 5.82%
CC1=C(C(=O)Nc2ccccc2Cl)C(c2cccs2)n2ncnc2N1 (stereo not given) -11.7%
O=C(CCC1N=C2c3ccccc3N=C(SCc3cccc(F)c3)N2C1=O)NC1CCCCC1 (stereo not given) -9.23%
Cc1cc(NS(=O)(=O)c2ccc(NC(=O)COc3c(C)cc(Br)cc3C)cc2)no1 -10.7%
Cc1c(CNC(C)c2ccccc2)c(C(=O)O)c(C)n1Cc1c(F)cccc1Cl (stereo not given) -17.4%
CCOC(=O)N1CCN([N+]([O-])=NOc2cc(ON=[N+]([O-])N3CCN(C(=O)OCC)CC3)c([N+](=O)[O-])cc2[N+](=O)[O-])CC1 -0.902%
COc1cc(-c2noc(-c3nnn(-c4ccc(Cl)cc4)c3C)n2)cc(OC)c1OC -6.51%
Cc1ccc(-n2nc(CO)c(C(=O)NCCc3ccccc3)n2)cc1C -11.2%
CCCc1nn(C)c2c(=O)[nH]c(-c3cc(S(=O)(=O)N4CCN(C)CC4)ccc3OCC)nc12
CCc1cccc(C)c1Nc1c(-c2ccc(N3CCOCC3)cc2)nc2ncccn12 -17.6%
CC(=O)c1ccc(NC(=O)C2CCCN(S(=O)(=O)c3cn(C)cn3)C2)cc1 (stereo not given) -15.6%
CCOC(=O)c1cc2c(=O)n3ccccc3nc2n(Cc2ccco2)c1=NC(=O)c1ccccc1OC -7.17%
Cc1ccc(NC(=O)C2CCCN(c3nnc(C)c4c(C)n(-c5ccccc5)nc34)C2)cc1Cl (stereo not given) -19.2%
Cc1c2cnn(CC(=O)Nc3ccc(F)cc3F)c(=O)c2c(C)n1Cc1cccc(Cl)c1 -13.6%
Cc1cc(C)cc(OCC(=O)Nc2cccc(-c3nc4ccccc4[nH]3)c2)c1 6.88%
O=C(Cn1c(=O)n(-c2ccc(F)cc2)c(=O)c2sccc21)Nc1cccc(C(F)(F)F)c1 -22.3%
COc1ccc(-n2nc3c(c2NC(=O)C(=O)N2CCN(C)CC2)CSC3)cc1 -7.89%
Cc1ccc(-n2nc3c(=O)n(C(C)C(=O)O)nc(C)c3c2C)cc1 (stereo not given) -14%
CCC(=O)N1CCc2cc(S(=O)(=O)CCC(=O)NCc3ccc(F)cc3)ccc21 -15%
CC(C)NC(=O)c1cc2c(Cl)nc3ccccc3c2s1 -6.23%
Cc1cc(O)c(C(=O)c2cnc3c(c2)COc2ccccc2-3)cc1Cl -18.4%
CCOc1ccc(NC(=O)Cn2cc(C(=O)c3ccc(C)c(C)c3)c(=O)c3cc(F)ccc32)cc1 -5.69%
Cc1ccc(Cl)cc1NC(=O)Cn1c(=O)n(CCC(=O)N2CCc3ccccc3C2)c(=O)c2ccccc21 -2.61%
CCOc1ccc2nc(N3CCCC(C(=O)NCCc4ccc(SC)cc4)C3)sc2c1 (stereo not given) 54.9%
CCN(c1ccc(C)cc1C)S(=O)(=O)c1nnc(NC(=O)CC(C)C)s1 6.08%
COc1cccc(C(=O)c2sc(Nc3ccc(F)c(Cl)c3)nc2N)c1 -20.6% [at 11.5 µM]
Cn1c(=O)c2sccc2n2c(CCC(=O)Nc3ccc(F)cc3)nnc12 7.19%
C[C@@H]1CN(c2c(F)c(F)c3c(=O)c(C(=O)O)cn(C4CC4)c3c2F)C[C@H](C)N1 -2.47% [at 25.2 µM]
Cc1ccc(C)c(NC(=O)CSc2nnc(C)n3c2cc2occc23)c1 0.734%
CCC1CCCCN1CCCNC(=O)c1ccc2c(c1)sc1nc(-c3ccc(F)cc3)cn12 (stereo not given) 2.53%
O=S(=O)(Nc1cccc(-c2ccc(N3CCOCC3)nn2)c1)c1cc(C(F)(F)F)ccc1Cl 5.7%
COC(=O)c1ccc(Cl)cc1NC(=O)Nc1nnc(N(C)Cc2ccccc2)s1 -12.7%
CCC(C(=O)OC)n1nnc2sc(-c3ccccc3)cc2c1=O (stereo not given) 8.75%
CCOC(=O)c1ccc(CN(Cc2ccc(Br)cc2)S(=O)(=O)c2cccc(C(F)(F)F)c2)cc1 2.35%
COc1ccc2c(c1)c(=O)c(C(=O)c1ccc(C)cc1)cn2Cc1ccccc1F -21.6%
Cc1ccc(N2C(=O)CS(=O)(=O)C23C(=O)N(Cc2ccccc2F)c2ccccc23)cc1Cl (stereo not given) -33.5%
O=C(COc1ccccc1Cl)Nc1ccccc1OCc1cc(=O)n2ccccc2n1 3.17%
O=C(CN1C(=O)C2CCCCN2c2ccc(C(=O)N3CCCC3)cc21)NCc1ccccc1F (stereo not given) -5.36%
CCCCN(CC)CCNc1ncnc2onc(-c3ccc(Cl)cc3)c12 -28.5%
CC(C)COc1ccc(Nc2ncnc3ccc(Br)cc23)cc1 -3.78%
COC(=O)c1sccc1S(=O)(=O)N(CC(=O)NCc1ccc(F)cc1)c1ccc(C)c(C)c1 -2.57%
Cc1cccc(NC(=O)NC2COc3ccccc3C2)c1C (stereo not given) 4.19%
CNS(=O)(=O)c1cn(CC(=O)Nc2cccc(C(F)(F)F)c2)cc1S(=O)(=O)NC 3.99%
Cc1ccc(CN(Cc2ccco2)C(=O)c2cccc(C)c2)cc1 -27.4%
CNS(=O)(=O)c1cn(CC(=O)N2CCN(c3ccc(C)cc3C)CC2)cc1S(=O)(=O)NC -1.54%
CCCCS(=N)(=O)CCC(N)C(=O)O (stereo not given) -9.79%
CCCNc1ccc(-c2nc(-c3ccco3)no2)cc1[N+](=O)[O-] 51.1%
Cc1cc(S(=O)(=O)n2ccnc2C(C)C)cc([N+](=O)[O-])c1C -15.9%
COc1ccc(C2Sc3ccccc3N(CCN(C)C)C(=O)C2OC(C)=O)cc1 (stereo not given) -5.89%
COc1ccc(CNc2nc(-c3ccco3)nn2C(=O)CC(C)C)cc1 47.8%
CCOC(=O)c1nc(Nc2ccc(Cl)cc2)c2c(C)noc2n1 -24.7%
O=C(Nc1cc(C(F)(F)F)ccc1Cl)c1ccc2c(c1)CCN2S(=O)(=O)c1ccccc1 -20.9%
CCC(C)(C)C(=O)O[C@H]1C[C@@H](C)C=C2C=C[C@H](C)[C@H](CC[C@@H]3C[C@@H](O)CC(=O)O3)[C@H]21
Cc1cc(C)c(Cn2c(=O)n(-c3ccccc3Cl)c(=O)c3c(C)c(C(=O)N(C)C)sc32)c(C)c1 7%
Cc1cn2c(=O)cc(COc3cccc(NC(=O)c4ccccc4Cl)c3)nc2s1 5.74%
COc1cccc(N2CC(NC(=O)C3CCCCC3)CC2=O)c1 (stereo not given) -16.9%
COc1ccc(C(=O)Nc2nnc(S(=O)(=O)N3CCN(c4ccc(C)cc4)CC3)s2)cc1 -5.84%
CC(Oc1ccccc1)C(=O)Nc1nnc(S(=O)(=O)N2CCCCCC2)s1 (stereo not given) -20.9%
Cc1ccccc1C(=O)Nc1cccc(-c2cn3cccnc3n2)c1 -9.35%
Cc1ccc(Oc2nc3c(c(=O)n(Cc4ccccc4Cl)c(=O)n3C)n2C)cc1C 0.182%
COc1ccc(-c2cc3nc(C)c(CCC(=O)Nc4ccc(F)cc4F)c(C)n3n2)c(OC)c1 -25.7%
CCOc1ccc(C(=O)Nc2ccc(C(=O)OCc3cc(=O)n4nc(CC)sc4n3)cc2)cc1 -18.7%
COC(=O)c1ccc(NC(=O)N2CCC(CN3CCc4ccccc4C3)CC2)cc1 -30.7%
COc1ccc(NC(=O)CSc2ccc(-c3cccs3)nn2)cc1 9.5%
COc1ccc(/C=C/C(=O)N2CCC(c3nc4ccccc4o3)CC2)cc1 -13.3%
CCOc1ccc(N(CC)S(=O)(=O)N2CCCC(C(=O)Nc3ccc(NC(C)=O)cc3)C2)cc1 (stereo not given) -9.48%
CCS(=O)(=O)c1nc(S(=O)(=O)c2ccc(C)cc2)c(NCc2ccc(Cl)cc2)s1 -30.5%
CCOC(=O)c1ccc(NS(=O)(=O)c2cn(C)c(C)n2)cc1 -13.2%
CN(C)C(=O)COC(=O)Cc1ccc(OC(=O)c2ccc(N=C(N)N)cc2)cc1 3.82%
COc1cccc(C(=O)Nc2cc(-c3ccccc3)nn2-c2ccccc2)c1 -20%
O=C(COc1ccc2oc3c(c2c1)CCCC3)Nc1ccc(Cl)cc1 -22.2%
CC(=O)Oc1ccc(C(c2ccc(OC(C)=O)cc2)c2ccccn2)cc1 3%
CCOc1ccc(NC(=O)Cn2cc(C(=O)c3ccc(OCC)cc3)c(=O)c3cc4c(cc32)OCCO4)cc1 6.09%
Cc1ccc(CCNC(=O)c2cc3cc4cc(C)ccc4nc3s2)cc1 33.4%
COc1ccc(NC(=O)N(C(C)C)C2CCN(C(C)=O)CC2)c(OC)c1 -21.1%
COc1cccc(NC(=O)CN2C(=O)COc3ccc(S(=O)(=O)N4CCCCCC4)cc32)c1 -18.1%
CCc1ccc(NC(=O)CC2C(=O)N(c3ccc(C)cc3)C(=O)N2CCc2ccncc2)cc1 (stereo not given) -11.1%
Nc1c(C(=O)NCc2ccc3c(c2)OCO3)nnn1CC(=O)Nc1ccc(Br)cc1 -9.73%
Cc1cccc(C)c1OCC(=O)N1CCC(c2nc3ccccc3o2)CC1 -11.1%
Cc1cc(SCC(=O)Nc2ccc(Cl)cc2)nc2ccccc12 -5.57%
Cc1cccc(NC(=O)CSc2cn(CC(=O)N3CCCC3)c3ccccc23)c1C -17.1%
CCc1ccc(-c2cc(C)no2)cc1S(=O)(=O)Nc1ccc(Cl)cn1 -22.3%
COc1cc(OC)c(NC(=O)c2cc3c(s2)-c2ccc(Cl)cc2SC3)cc1Cl -22.1%
Cc1cccc(N2CCN(C(=O)C3CCN(Cc4nc(-c5ccc(Cl)cc5)oc4C)CC3)CC2)c1C -8.05%
Cc1cc(NC(=O)C2CCC(CNS(=O)(=O)c3ccc(Br)s3)CC2)ccc1Br (stereo not given) -2.79%
CCc1nn2c(-c3ccco3)ccnc2c1-c1ccccc1 8.89%
N=c1nc(N2CCCCC2)cc(N)n1O
CCOC(=O)c1cc(S(=O)(=O)Nc2ccc(OC(F)(F)F)cc2)[nH]n1 -7.05%
COc1ccc(NC(=O)CSc2nc(-c3ccc(OC)cc3)cc(=O)[nH]2)cc1 9.16%
O=C(NCc1ccccc1Cl)c1cnc(N2CCCCC2)c2ccccc12 -12.2%
COc1ccc(-c2cc3ccc(O)c(CN4CCN(CCO)CC4)c3oc2=O)cc1OC -7.87%
Cc1cccn2c(Nc3ccc4c(c3)OCCO4)c(-c3ccc(Br)o3)nc12 18.2%

— PubChem BioAssay AID1508623 (National Center for Advancing Translational Sciences (NCATS), 2021)
